Data taken from patent publication US20250064779A1, “COMPOSITIONS AND METHODS FOR THE TREATMENT OF DEPRESSION” (Janssen Pharmaceuticals, Inc., priority 2022, published 2025).

Test system: subjects with MDD who have had an inadequate response to SSRI/SNRI treatment
[1] = eITT, low anhedonia (SHAPS >=20 and <38 at treatment baseline), Treatment Week 1
[2] = eITT, low anhedonia (SHAPS >=20 and <38 at treatment baseline), Treatment Week 3
[3] = eITT, low anhedonia (SHAPS >=20 and <38 at treatment baseline), Treatment Week 4
[4] = eITT, low anhedonia (SHAPS >=20 and <38 at treatment baseline), Treatment Week 5
[5] = eITT, low anhedonia (SHAPS >=20 and <38 at treatment baseline), Treatment Week 6
[6] = fITT, Treatment Week 3, 10 mg adjunctive to SSRI/SNRI
[7] = fITT, high anhedonia (SHAPS >=38 at treatment baseline), Treatment Week 1
[8] = fITT, high anhedonia (SHAPS >=38 at treatment baseline), Treatment Week 3
[9] = fITT, high anhedonia (SHAPS >=38 at treatment baseline), Treatment Week 4
[10] = fITT, high anhedonia (SHAPS >=38 at treatment baseline), Treatment Week 5
[11] = fITT, high anhedonia (SHAPS >=38 at treatment baseline), Treatment Week 6
[12] = fITT, low anhedonia (SHAPS >=20 and <38 at treatment baseline), Treatment Week 1
[13] = fITT, low anhedonia (SHAPS >=20 and <38 at treatment baseline), Treatment Week 3
[14] = fITT, low anhedonia (SHAPS >=20 and <38 at treatment baseline), Treatment Week 4
[15] = fITT, low anhedonia (SHAPS >=20 and <38 at treatment baseline), Treatment Week 5
[16] = fITT, low anhedonia (SHAPS >=20 and <38 at treatment baseline), Treatment Week 6

SMILES: Cc1cc(C)cc(C2CCCN2Cc2ccc(Oc3ccc(C(N)=O)cc3F)cc2)c1 (stereo not shown) [aticaprant, 3-fluoro-4-4-2-(3,5-dimethylphenyl)pyrrolidin-1-yl-methylphenoxybenzamide]
- MADRS Total Score: Mean Change from Baseline (SD) [1]: −2.3 (5.03)
- MADRS Total Score: Mean Change to Placebo (SD pooled) [1]: −0.5 (4.30)
- MADRS Total Score: Effect size vs placebo [2]: −0.01
- MADRS Total Score: Mean Change from Baseline (SD) [2]: −4.9 (5.99)
- MADRS Total Score: Mean Change to Placebo (SD pooled) [2]: −0.1 (5.85)
- MADRS Total Score: Effect size vs placebo [3]: 0.01
- MADRS Total Score: Mean Change from Baseline (SD) [3]: −6.4 (7.40)
- MADRS Total Score: Mean Change to Placebo (SD pooled) [3]: 0.0 (6.80)
- MADRS Total Score: Effect size vs placebo [4]: 0.05
- MADRS Total Score: Mean Change from Baseline (SD) [4]: −7.2 (6.46)
- MADRS Total Score: Mean Change to Placebo (SD pooled) [4]: 0.3 (6.65)
- MADRS Total Score: Effect size vs placebo [5]: −0.11
- MADRS Total Score: Mean Change from Baseline (SD) [5]: −9.2 (8.01)
- MADRS Total Score: Mean Change to Placebo (SD pooled) [5]: −0.9 (8.13)
- onset of effect: significant treatment effect on MADRS vs placebo seen as early as (fITT, FIG. 7B): 3 week
- MADRS Total Score: Mean Change to Placebo (SD pooled) (fITT, Treatment Week 1, 10 mg adjunctive to SSRI/SNRI): −1.3 (4.43)
- MADRS Total Score: Change from Baseline LSMean (SE) (fITT, Treatment Week 1, MMRM): −3.2
- MADRS Total Score: LSMean Difference (SE) Treatment-Placebo (fITT, Treatment Week 1, MMRM): −1.6
- MADRS Total Score: Mean (SD) [6]: 20.0
- MADRS Total Score: Mean Change to Placebo (SD pooled) [6]: −1.7 (6.62)
- MADRS Total Score: Change from Baseline LSMean (SE) (fITT, Treatment Week 3, MMRM): −5.2
- MADRS Total Score: LSMean Difference (SE) Treatment-Placebo (fITT, Treatment Week 3, MMRM): −1.9
- MADRS Total Score: Mean Change to Placebo (SD pooled) (fITT, Treatment Week 4, 10 mg adjunctive to SSRI/SNRI): −2.3 (7.02)
- MADRS Total Score: Change from Baseline LSMean (SE) (fITT, Treatment Week 4, MMRM): −7.3
- MADRS Total Score: LSMean Difference (SE) Treatment-Placebo (fITT, Treatment Week 4, MMRM): −2.5
- MADRS Total Score: Mean Change to Placebo (SD pooled) (fITT, Treatment Week 5, 10 mg adjunctive to SSRI/SNRI): −1.9 (7.31)
- MADRS Total Score: Change from Baseline LSMean (SE) (fITT, Treatment Week 5, MMRM): −8.7
- MADRS Total Score: LSMean Difference (SE) Treatment-Placebo (fITT, Treatment Week 5, MMRM): −2.4
- MADRS Total Score: Mean Change to Placebo (SD pooled) (fITT, Treatment Week 6, 10 mg adjunctive to SSRI/SNRI): −3.0 (8.31)
- MADRS Total Score: Change from Baseline LSMean (SE) (fITT, Treatment Week 6, MMRM): −9.6 and −9.6 ± 0.79
- MADRS Total Score: LSMean Difference (SE) Treatment-Placebo (fITT, Treatment Week 6, MMRM): −3.1
- MADRS total score: observed effect size (fITT, Treatment Week 6, high anhedonia level): 0.51
- MADRS total score: difference between aticaprant and placebo (fITT, Treatment Week 6, high anhedonia level, n=63): −4.6
- MADRS total score: observed effect size (fITT, Treatment Week 6, low anhedonia level): 0.29
- MADRS total score: LSMeans difference estimate vs placebo, supplementary analysis (COVID-19 impact) (fITT, data collected prior to 15 Mar. 2020, MMRM): −3.4
- MADRS Total Score: Effect size vs placebo [7]: −0.45
- MADRS Total Score: Mean Change from Baseline (SD) [7]: −4.4 (5.04)
- MADRS Total Score: Mean Change to Placebo (SD pooled) [7]: −2.0 (4.38)
- MADRS Total Score: Effect size vs placebo [8]: −0.54
- MADRS Total Score: Mean Change from Baseline (SD) [8]: −6.9 (6.66)
- MADRS Total Score: Mean Change to Placebo (SD pooled) [8]: −3.8 (6.94)
- MADRS Total Score: Effect size vs placebo [9]: −0.50
- MADRS Total Score: Mean Change from Baseline (SD) [9]: −8.6 (7.32)
- MADRS Total Score: Mean Change to Placebo (SD pooled) [9]: −3.8 (7.56)
- MADRS Total Score: Effect size vs placebo [10]: −0.51
- MADRS Total Score: Mean Change from Baseline (SD) [10]: −10.2 (8.04)
- MADRS Total Score: Effect size vs placebo [11]: −0.51
- MADRS Total Score: Mean Change from Baseline (SD) [11]: −11.3 (8.69)
- MADRS Total Score: Mean Change to Placebo (SD pooled) [11]: −4.6 (9.03)
- MADRS Total Score: Effect size vs placebo [12]: −0.24
- MADRS Total Score: Mean Change from Baseline (SD) [12]: −2.4 (4.59)
- MADRS Total Score: Mean Change to Placebo (SD pooled) [12]: −1.0 (4.39)
- MADRS Total Score: Effect size vs placebo [13]: −0.08
- MADRS Total Score: Mean Change from Baseline (SD) [13]: −4.1 (6.67)
- MADRS Total Score: Mean Change to Placebo (SD pooled) [13]: −0.5 (6.37)
- MADRS Total Score: Effect size vs placebo [14]: −0.23
- MADRS Total Score: Mean Change from Baseline (SD) [14]: −6.4 (6.77)
- MADRS Total Score: Mean Change to Placebo (SD pooled) [14]: −1.5 (6.65)
- MADRS Total Score: Effect size vs placebo [15]: −0.10
- MADRS Total Score: Mean Change from Baseline (SD) [15]: −7.3 (6.90)
- MADRS Total Score: Mean Change to Placebo (SD pooled) [15]: −0.7 (6.86)
- MADRS Total Score: Effect size vs placebo [16]: −0.29
- MADRS Total Score: Mean Change from Baseline (SD) [16]: −8.8 (7.48)
- MADRS Total Score: Mean Change to Placebo (SD pooled) [16]: −2.3 (7.80)

Several values for one entry are separate records, joined by “and”; a condition that tells them apart may be missing. Equal entries are not always repeated. Where two headings read alike, the source gives them in different places.
